Test results as given in the supplement of paper PMC4604168 (melanoma cell lines).
The list shows a part of the results. Many values rest on one well or one pass, so single values are uncertain.

How the values were obtained:
Test in all cases: cell count relative to DMSO control; melanoma cells; higher = more viable cells
Details in all cases: library dose: standard library concentration; 72 h
[1] = test system: G361
[2] = test system: IPC-298
[3] = test system: IST-MEL1
[4] = test system: LB2518-MEL
[5] = test system: LOXIMVI
[6] = test system: MEL-HO
[7] = test system: MZ2-MEL
[8] = test system: MeWo
[9] = test system: RPMI7951
[10] = test system: RVH-421
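Also: cells treated in 1,536-well plates, then fixed and DAPI-stained, with nuclei counted from automated high-throughput microscope images.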

| SMILES | cell count [1] | cell count [2] | cell count [3] | cell count [4] | cell count [5] | cell count [6] | cell count [7] | cell count [8] | cell count [9] | cell count [10] |
| --- | --- | --- | --- | --- | --- | --- | --- | --- | --- | --- |
| CCCS(=O)(=O)Nc1ccc(F)c(C(=O)c2c[nH]c3ncc(Cl)cc23)c1F + O=C(Nc1cccc(Cl)c1)Nc1ncc(CCNc2ncnc3ccsc23)s1 [SNS314] (first compound 0.4 µM, partner dose 0.004 µM) | 74% | 75.7% | 59.3% | 83.8% | 81.6% | 68.8% | 61.2% | 66.3% | 75.6% | 89.3% |
| NC1(c2ccc(-c3nc4ccn5c(=O)[nH]nc5c4cc3-c3ccccc3)cc2)CCC1 + Cn1c(=O)n(-c2ccc(C(C)(C)C#N)cc2)c2c3cc(-c4cnc5ccccc5c4)ccc3ncc21 [NVP-BEZ235] (first compound 2 µM, partner dose 0.02 µM) | 35.9% | 55.3% | 59.3% | 60.4% | 61.5% | 48.6% | 65.3% | 41% | 61% | 55.2% |
| NC1(c2ccc(-c3nc4ccn5c(=O)[nH]nc5c4cc3-c3ccccc3)cc2)CCC1 + O=C(O)c1ccc(-c2c[nH]c3ncc(-c4ccccc4)cc23)cc1C1CCCC1 [GSK650394] (first compound 2 µM, partner dose 0.8 µM) | 53.8% | 97.9% | 78.7% | 93.5% | 82.7% | 73.5% | 104% | 86.6% | 91.9% | 76.6% |
| CN(c1ncccc1CNc1nc(Nc2ccc3c(c2)CC(=O)N3)ncc1C(F)(F)F)S(C)(=O)=O + CC(C)C[C@H](NC(=O)[C@H](Cc1ccccc1)NC(=O)c1cnccn1)B(O)O [Bortezomib] (first compound 0.4 µM, partner dose 0.005 µM) | 1.63% | 5.92% | 6.84% | 1.37% | 13.7% | 27.5% | 4.64% | 13.7% | 3.87% | 3.88% |
| CN(c1ncccc1CNc1nc(Nc2ccc3c(c2)CC(=O)N3)ncc1C(F)(F)F)S(C)(=O)=O + CCc1ccc(CCOc2ccc(CC3SC(=O)NC3=O)cc2)nc1 [pioglitazone] (first compound 0.4 µM, partner dose 10 µM) | 66.1% | 89.2% | 82.4% | 89.4% | 103% | 77.9% | 78.7% | 102% | 73.6% | 71.6% |
| CCCS(=O)(=O)Nc1ccc(F)c(C(=O)c2c[nH]c3ncc(Cl)cc23)c1F + CO[C@@H]1[C@H](N(C)C(=O)c2ccccc2)C[C@H]2O[C@]1(C)n1c3ccccc3c3c4c(c5c6ccccc6n2c5c31)C(=O)NC4 [Midostaurin] (first compound 0.4 µM, partner dose 0.4 µM) | 62.8% | 66% | 73% | 59.5% | 47.8% | 74.9% | 56.8% | 84.6% | 54% | 78.6% |
| C=C(c1ccc(C(=O)O)cc1)c1cc2c(cc1C)C(C)(C)CCC2(C)C [Bexarotene] + O=C(O)C(=O)Nc1sc2c(c1C(=O)O)CCNC2 [TCS401] (first compound 10 µM, partner dose 8.33333 µM) | 70.8% | 85.5% | 105% | 109% | 106% | 83.5% | 106% | 94.8% | 101% | 77.4% |
| CN(c1ncccc1CNc1nc(Nc2ccc3c(c2)CC(=O)N3)ncc1C(F)(F)F)S(C)(=O)=O + CN1CCN(c2ccc3nc(-c4c(N)c5c(F)cccc5[nH]c4=O)[nH]c3c2)CC1 [Dovitinib] (first compound 0.4 µM, partner dose 0.5 µM) | 65.1% | 62% | 57.5% | 60.1% | 129% | 63.9% | 48.1% | 49.5% | 43.2% | 76.2% |
| NC1(c2ccc(-c3nc4ccn5c(=O)[nH]nc5c4cc3-c3ccccc3)cc2)CCC1 + O=C(O)c1ccc2c(c1)nc(Nc1cccc(Cl)c1)c1ccncc12 [CX4945] (first compound 2 µM, partner dose 2 µM) | 53.9% | 67.3% | 68.9% | 99.3% | 50.8% | 44.3% | 66.5% | 75.2% | 57.1% | 61.4% |
| C=C(c1ccc(C(=O)O)cc1)c1cc2c(cc1C)C(C)(C)CCC2(C)C [Bexarotene] + CO[C@@H]1[C@H](N(C)C(=O)c2ccccc2)C[C@H]2O[C@]1(C)n1c3ccccc3c3c4c(c5c6ccccc6n2c5c31)C(=O)NC4 [Midostaurin] (first compound 10 µM, partner dose 0.4 µM) | 60.6% | 66.9% | 65.8% | 62.5% | 87.3% | 81% | 65.2% | 64.4% | 51.3% | 72.5% |
| CCCS(=O)(=O)Nc1ccc(F)c(C(=O)c2c[nH]c3ncc(Cl)cc23)c1F + c1cc(-c2cnn3cc(-c4ccc(OCCN5CCCCC5)cc4)cnc23)ccn1 [Dorsomorphin] (first compound 0.4 µM, partner dose 2 µM) | 36.2% | 58.5% | 76.6% | 51.1% | 80.8% | 62.6% | 47.8% | 62.4% | 63.2% | 78.3% |
| NC1(c2ccc(-c3nc4ccn5c(=O)[nH]nc5c4cc3-c3ccccc3)cc2)CCC1 + Cc1cc([N+](=O)[O-])ccc1NS(=O)(=O)c1cc(Cl)ccc1Cl [FH535] (first compound 2 µM, partner dose 5 µM) | 36.2% | 45.4% | 44.4% | 60.5% | 55.3% | 34.2% | 55.6% | 61.4% | 102% | 66% |
| CN(c1ncccc1CNc1nc(Nc2ccc3c(c2)CC(=O)N3)ncc1C(F)(F)F)S(C)(=O)=O + CCN(CC)CCCCNc1ncc2cc(-c3cc(OC)cc(OC)c3)c(NC(=O)NC(C)(C)C)nc2n1 [PD173074] (first compound 0.4 µM, partner dose 0.5 µM) | 89.4% | 84.7% | 82.7% | 80.6% | 67.7% | 96.9% | 79% | 93.5% | 67.3% | 88.1% |
| CCCS(=O)(=O)Nc1ccc(F)c(C(=O)c2c[nH]c3ncc(Cl)cc23)c1F + COc1ccc(Cl)c(Nc2nc3ccccc3nc2NS(=O)(=O)c2cccc(NC(=O)C(C)(C)N)c2)c1 [XL147] (first compound 0.4 µM, partner dose 4 µM) | 59% | 51% | 60% | 72.3% | 92.9% | 51.5% | 59.7% | 84.8% | 112% | 54.7% |
| CS(=O)(=O)c1ccc(C(=O)Nc2ccc(Cl)c(-c3ccccn3)c2)c(Cl)c1 [vismodegib] + Cn1cc(/C=C2\C(=O)Nc3cccnc32)c2ccccc21 [GW441756] (first compound 5 µM, partner dose 2 µM) | 89.7% | 93.5% | 95.7% | 128% | 104% | 82.4% | 90% | 86% | 80% | 119% |
| CS(=O)(=O)c1ccc(C(=O)Nc2ccc(Cl)c(-c3ccccn3)c2)c(Cl)c1 [vismodegib] + Oc1cc(-c2nc(-c3ccccc3)[nH]c2-c2ccncc2)ccc1Cl [L779450] (first compound 5 µM, partner dose 1 µM) | 51.1% | 74.8% | 104% | 83.7% | 154% | 77.1% | 96.2% | 74.8% | 82.9% | 98.3% |
| C=C(c1ccc(C(=O)O)cc1)c1cc2c(cc1C)C(C)(C)CCC2(C)C [Bexarotene] + COc1ccc(COc2ccc(Cc3cnc(N)nc3N)cc2OC)cc1 [GW2580] (first compound 10 µM, partner dose 5 µM) | 75.5% | 81.2% | 74.5% | 101% | 128% | 77.9% | 80.8% | 99.2% | 107% | 140% |
| CCCS(=O)(=O)Nc1ccc(F)c(C(=O)c2c[nH]c3ncc(Cl)cc23)c1F + COc1cc2ncnc(Nc3ccc(Oc4ccccc4)cc3)c2cc1OC [SrcI1] (first compound 0.4 µM, partner dose 10 µM) | 40.5% | 68% | 82% | 98.1% | 101% | 88.6% | 64.7% | 77.7% | 48.4% | 89.2% |
| NC1(c2ccc(-c3nc4ccn5c(=O)[nH]nc5c4cc3-c3ccccc3)cc2)CCC1 + Cc1nc(Nc2ncc(C(=O)Nc3c(C)cccc3Cl)s2)cc(N2CCN(CCO)CC2)n1 [dasatanib] (first compound 2 µM, partner dose 0.02 µM) | 69.9% | 73.9% | 57.7% | 72% | 18.7% | 65.2% | 48.1% | 63% | 44.6% | 68% |
| CS(=O)(=O)c1ccc(C(=O)Nc2ccc(Cl)c(-c3ccccn3)c2)c(Cl)c1 [vismodegib] + O=C(O)c1ccc(-c2c[nH]c3ncc(-c4ccccc4)cc23)cc1C1CCCC1 [GSK650394] (first compound 5 µM, partner dose 0.8 µM) | 78.2% | 103% | 99.8% | 113% | 101% | 84.7% | 118% | 80.1% | 130% | 102% |
| C=C(c1ccc(C(=O)O)cc1)c1cc2c(cc1C)C(C)(C)CCC2(C)C [Bexarotene] + CN(NC(=O)CC(=O)NN(C)C(=S)c1ccccc1)C(=S)c1ccccc1 [STA4783] (first compound 10 µM, partner dose 0.03 µM) | 29.9% | 67.8% | 35.6% | 23.7% | 63.9% | 85.2% | 108% | 23.9% | 65.4% | 45.5% |
| CCCS(=O)(=O)Nc1ccc(F)c(C(=O)c2c[nH]c3ncc(Cl)cc23)c1F + CC(=O)c1c(C)c2cnc(Nc3ccc(N4CCNCC4)cn3)nc2n(C2CCCC2)c1=O [palbociclib] (first compound 0.4 µM, partner dose 0.2 µM) | 47% | 45.8% | 63.3% | 69% | 74.1% | 69.7% | 44.6% | 54.4% | 65.3% | 62.4% |
